# Source: the supplement of paper PMC9174493
# Some of the results follow. Single values of this set are uncertain. Values with irradiation are relative to irradiated vehicle.
# Test system: A549-Dual
# Assay: ISRE reporter (Lucia luciferase) activity, viability-corrected, relative to vehicle (fold change vs vehicle); higher = more activation of STING-IRF / NF-kB immune response reporter
# Conditions: 10 µM; irradiation: none
row,Compound,ISRE reporter
1,C=CC(=O)Nc1cc(Nc2nccc(-c3cn(C)c4ccccc34)n2)c(OC)cc1N(C)CCN(C)C [Osimertinib (AZD9291)],2.52
2,CC1CC2C3CCC4=CC(=O)C=CC4(C)C3(F)C(O)CC2(C)C1(O)C(=O)COP(=O)([O-])[O-].[Na+].[Na+] (centres undefined) [Dexamethasone Sodium Phosphate],0.157
3,O=C(O)CCCN1CCC(OC(c2ccc(Cl)cc2)c2ccccn2)CC1.O=S(=O)(O)c1ccccc1 (centres undefined) [Bepotastine Besilate],1.06
4,CC(=O)OC(C)C(C)C(=O)OCC12C3CC4(C)C(=CCC5C6(C)CCC(OC7OC(C(=O)[O][Na])C(OC8OC(CO)C(O)C(O)C8O)C(O)C7OC7OCC(O)C(O)C7O)C(C)(CO)C6CCC54C)C1CC(C)(C)C(O3)C2O (centres undefined) [Sodium Aescinate],0.727
5,Nc1nc(CC(=O)Nc2ccc(CCNCC(O)c3ccccc3)cc2)cs1 (centres undefined) [Mirabegron],1.03
6,O=C1OC(OC(=O)c2cccnc2Nc2cccc(C(F)(F)F)c2)c2ccccc21 (centres undefined) [Talniflumate],0.863
7,CN1C(C(=O)Nc2ccccn2)=C(O)c2sccc2S1(=O)=O [Tenoxicam],0.955
8,CCC(=O)NS(=O)(=O)c1ccc(-c2c(-c3ccccc3)noc2C)cc1 [Parecoxib],0.885
9,CNCC(O)C(O)C(O)C(O)CO.Cc1c(Nc2ncccc2C(=O)O)cccc1C(F)(F)F [Flunixin Meglumin],0.888
10,Cc1cncc(CN2CCC(=C3c4ccc(Cl)cc4CCc4cccnc43)CC2)c1.O=C(O)/C=C/C(=O)O [Rupatadine Fumarate],0.855
11,COC(=O)CC(O)(CCCC(C)(C)O)C(=O)OC1C(OC)=CC23CCCN2CCc2cc4c(cc2C13)OCO4 (centres undefined) [Homoharringtonine],0.488
12,CC(C(=O)[O-])c1ccc(CC2CCCC2=O)cc1.[Na+] (centres undefined) [Loxoprofen Sodium],0.803
13,C=C1c2cccc(O)c2C(=O)C2=C(O)C3(O)C(=O)C(C(N)=O)=C(O)C(N(C)C)C3C(O)C12.Cl (centres undefined) [Methacycline HCl],0.655
14,CC1CCC2(C(=O)OC3OC(COC4OC(CO)C(OC5OC(C)C(O)C(O)C5O)C(O)C4O)C(O)C(O)C3O)CCC3(C)C(=CCC4C5(C)CC(O)C(O)C(C)(CO)C5CCC43C)C2C1C (centres undefined) [Asiaticoside],0.944
15,Nc1nc(F)nc2c1ncn2C1OC(CO)C(O)C1O (centres undefined) [Fludarabine],0.949
16,O=NN(CCCl)C(=O)NC1CCCCC1 [Lomustine],0.697
17,O=CC(O)C(O)C(O)C(O)COC1OC(CO)C(O)C(O)C1O (centres undefined) [Melibiose],0.687
18,O.S=c1nc[nH]c2nc[nH]c12 [6-Mercaptopurine (6-MP) Monohydrate],0.64
19,CC(C(=O)O)c1cccc(C(=O)c2ccccc2)c1 (centres undefined) [Ketoprofen],0.752
20,CNC1CCC(c2ccc(Cl)c(Cl)c2)c2ccccc21.Cl (centres undefined) [Sertraline HCl],2.18

row,Compound,ISRE reporter
1,CC1(C)OC2CC3C4CCC5=CC(=O)CCC5(C)C4(F)C(O)CC3(C)C2(C(=O)CCl)O1 (centres undefined) [Halcinonide],0.245
2,CC(=O)OC12COC1CC(O)C1(C)C(=O)C(O)C3=C(C)C(OC(=O)C(O)C(NC(=O)OC(C)(C)C)c4ccccc4)CC(O)(C(OC(=O)c4ccccc4)C21)C3(C)C (centres undefined) [Docetaxel],5.52
3,CCN(CC)Cc1cc(Nc2ccnc3cc(Cl)ccc23)ccc1O.Cl.Cl [Amodiaquine hydrochloride],1.71
4,Cc1c(N)c(=O)n(-c2ccccc2)n1C [4-Aminoantipyrine],0.738
5,Cn1cnc2c(F)c(Nc3ccc(Br)cc3F)c(C(=O)NOCCO)cc21,0.517
6,CC1(C)C2CCC1(C)C(O)C2 (centres undefined) [Borneol],0.855
7,CC1CC2C3CCC4=CC(=O)C=CC4(C)C3(Cl)C(O)CC2(C)C1(OC(=O)c1ccco1)C(=O)CCl (centres undefined) [Mometasone furoate],0.21
8,CCN(CC)CCCC(C)Nc1ccnc2cc(Cl)ccc12.O=P(O)(O)O.O=P(O)(O)O (centres undefined) [Chloroquine Phosphate],1
9,"COc1cc2c(cc1Cc1cccc(Cl)c1F)c(=O)c(C(=O)O)cn2C(CO)C(C)C (centres undefined) [Elvitegravir (GS-9137, JTK-303)]",9.03
10,O=c1[nH]c(=O)n(C2CC(O)C(CO)O2)cc1F (centres undefined) [Floxuridine],1.71
11,"CC1(C)CCC(CN2CCN(c3ccc(C(=O)NS(=O)(=O)c4ccc(NCC5CCOCC5)c([N+](=O)[O-])c4)c(Oc4cnc5[nH]ccc5c4)c3)CC2)=C(c2ccc(Cl)cc2)C1 [Venetoclax (ABT-199, GDC-0199)]",0.634
12,Cc1ccc(NC(=O)c2ccc(CN3CCN(C)CC3)cc2)cc1Nc1nc(-c2cccnc2)cs1 [Masitinib (AB1010)],1.09
13,CCc1cc(/C(C)=N/OCc2ccc(C3CCCCC3)c(C(F)(F)F)c2)ccc1CN1CC(C(=O)O)C1 [BAF312 (Siponimod)],0.801
14,CN(C)C(=O)COC(=O)Cc1ccc(OC(=O)c2ccc(NC(=N)N)cc2)cc1.CS(=O)(=O)O [Camostat Mesilate],0.719
15,Nc1nc(=S)c2[nH]cnc2[nH]1 [Thioguanine],0.937
16,OCC1OC(Oc2cc(O)cc(/C=C/c3ccc(O)cc3)c2)C(O)C(O)C1O (centres undefined) [Polydatin],1.1
17,COc1cc(N2CCC(N3CCN(C)CC3)CC2)ccc1Nc1ncc(Cl)c(Nc2ccccc2P(C)(C)=O)n1,0.947
18,Cc1cccn2c(=O)c(-c3nnn[n-]3)cnc12.[K+] [Pemirolast potassium],0.963
19,Cc1cccc(N(C)C(=S)Oc2ccc3ccccc3c2)c1 [Tolnaftate],0.84
